Results reported in publication PMC4336329 (PLoS ONE, 2015).
Out of some 310,000 compounds screened, about 14,000 (4.5%) showed an effect of 50% or more. The effect is printed as a negative number. The list shows a part of the results.

The compounds below were run against human ether-à-go-go-related gene (hERG) potassium channel (human, UniProt Q12809) (assay: primary screen, population patch clamp on CHO cells stably expressing hERG).
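Note: peak tail current of the secondary pulse compared with the same well before compound.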

Chain of human ether-à-go-go-related gene (hERG) potassium channel (Q12809 whole entry, looked up): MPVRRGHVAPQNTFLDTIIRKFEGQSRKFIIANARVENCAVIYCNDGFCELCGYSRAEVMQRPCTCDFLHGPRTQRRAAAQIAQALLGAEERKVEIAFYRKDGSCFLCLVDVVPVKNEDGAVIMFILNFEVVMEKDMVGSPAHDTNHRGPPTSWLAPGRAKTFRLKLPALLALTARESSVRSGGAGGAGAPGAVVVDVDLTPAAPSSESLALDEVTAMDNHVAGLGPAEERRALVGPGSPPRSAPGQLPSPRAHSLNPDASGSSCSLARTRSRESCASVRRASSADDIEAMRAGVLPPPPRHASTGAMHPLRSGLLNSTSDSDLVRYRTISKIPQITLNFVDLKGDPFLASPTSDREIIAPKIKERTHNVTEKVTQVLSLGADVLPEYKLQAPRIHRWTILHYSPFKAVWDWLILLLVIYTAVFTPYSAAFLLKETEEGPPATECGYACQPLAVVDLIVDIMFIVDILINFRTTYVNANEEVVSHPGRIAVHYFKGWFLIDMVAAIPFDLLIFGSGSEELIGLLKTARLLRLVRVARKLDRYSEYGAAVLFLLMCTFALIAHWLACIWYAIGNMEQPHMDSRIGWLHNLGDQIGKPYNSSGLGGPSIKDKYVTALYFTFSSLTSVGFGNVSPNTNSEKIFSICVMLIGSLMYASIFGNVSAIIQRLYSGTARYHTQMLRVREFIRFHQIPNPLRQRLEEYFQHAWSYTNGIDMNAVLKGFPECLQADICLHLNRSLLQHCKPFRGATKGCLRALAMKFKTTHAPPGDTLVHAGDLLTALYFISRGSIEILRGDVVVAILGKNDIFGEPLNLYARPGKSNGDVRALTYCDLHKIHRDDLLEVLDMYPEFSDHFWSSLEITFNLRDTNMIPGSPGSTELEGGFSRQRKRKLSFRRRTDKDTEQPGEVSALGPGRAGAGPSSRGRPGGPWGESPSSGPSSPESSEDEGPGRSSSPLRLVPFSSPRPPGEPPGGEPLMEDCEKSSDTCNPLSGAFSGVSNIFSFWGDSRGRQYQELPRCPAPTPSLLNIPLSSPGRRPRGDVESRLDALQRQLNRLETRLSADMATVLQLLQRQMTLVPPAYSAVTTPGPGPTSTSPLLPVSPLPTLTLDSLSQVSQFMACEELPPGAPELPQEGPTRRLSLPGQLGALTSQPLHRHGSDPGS

Row | SMILES | hERG current change (%, negative = inhibition) at 10uM [%]
1 | Clc1ccccc1OCc1nc(-c2ccncc2)no1 | -12.4
2 | CC(NCc1ccc2c(c1)OCO2)C(=O)NC1CCCCC1.O=C(O)C(=O)O (stereo not drawn) | 28.3
3 | CN(Cc1nc(Cc2ccccc2F)no1)CC1(N2CCOCC2)CCCCC1 | -62.8
4 | CCCC(=O)c1ccc(N2CCC(C)CC2)c(F)c1 | -22.8
5 | CCN(CC)CCCN(C(=O)c1ccccc1F)c1nc(-c2ccc(OC)cc2)cs1 | -71.4
6 | Cc1ccc(CN2CCN(Cc3cccn3-c3ccc(Cl)cn3)CC2CCO)o1 (stereo not drawn) | -23.3
7 | O=C1CCN(Cc2ccc(Br)cc2)CCN1[C@H](CO)c1ccccc1 | -3.45
8 | O=C(c1cc(COc2c(F)cccc2F)on1)N1CCN(C2CCCCC2)CC1 | -52
9 | C/C(N)=C(/C#N)C(=O)CSc1nncn1-c1ccccc1 | 4.71
10 | COCCN(C(=O)COc1ccccc1)c1nnc(-c2cccnc2)s1 | -5.62
11 | CCOc1ccc(NC(=O)CSc2nc(N)c(-c3ccccc3)c(=O)[nH]2)cc1 | 17.3
12 | COC1(OC)C(/C=C/c2ccc(Cl)cc2)C(C#N)(C#N)C1(OC)OC (stereo not drawn) | 5.66
13 | Cc1[nH]c2ccccc2c1/C=N/Nc1ccc([N+](=O)[O-])cc1 | 3.95
14 | Fc1cccc(CSc2ccc3nnc(-c4ccccn4)n3n2)c1 | -77.9
15 | COc1ccc(-c2nc(CC(=O)Nc3cccc(S(=O)(=O)NC4=NCCC4)c3)cs2)cc1 | 3.68
16 | CCN1CCN(C(=O)c2ccc3nc(-c4ccccc4)c(-c4ccccc4)nc3c2)CC1 | -17.4
17 | Cc1cc(C)c2c(=O)[nH]cnc2n1 | 6.28
18 | COC(=O)c1ccccc1NC(=S)NC(=O)c1cccc2ccccc12 | 14.3
19 | Fc1ccccc1-c1nnc2ccc3ccccc3n12 | 3.52
20 | Cl.O=C(CN1CCN(c2ncccn2)CC1)NCCC1=CCCCC1 | -10.4
21 | Fc1cc(Br)ccc1Nc1nc2ccccc2n2nnnc12 | -4.72
22 | Nn1c(Cc2cccc3ccccc23)nnc1SCc1ccccc1 | 0.216

Row | SMILES | hERG current change (%, negative = inhibition) at 10uM [%]
23 | N#Cc1ncc(C(F)(F)F)cc1Oc1cccnc1 | 1.44
24 | Cc1cc(SC(C)C(=O)Nc2ncc(Cl)cc2Cl)nc2ccccc12 (stereo not drawn) | 22.8
25 | CC(=O)Nc1ccc(NC(=O)CN(C)CC(=O)Nc2ccccc2Br)cc1 | -5.24
26 | Oc1ccc(/C=N/N2CCCCC2)cc1O | 5.46
27 | CCOc1ccccc1NC(=O)CCN1CCN(S(=O)(=O)c2ccc(OC)cc2)CC1 | -2.27
28 | O=C(N/N=C/c1ccccc1O)c1cc[n+]([O-])cc1 | 19.4
29 | CCOC(=O)c1sc(=S)n(Cc2ccccc2)c1N | -3.73
30 | Cc1ccc(-c2nc(CS(=O)(=O)CC(=O)N3CCCCCC3)c(C)o2)cc1 | -14.1
31 | COC(=O)c1ccc(NC(=O)c2ccc[n+]([O-])c2)cc1 | 19.1
32 | COc1cccc(N2CC(C)Cn3c2nc2c3c(=O)[nH]c(=O)n2C)c1 (stereo not drawn) | -1.59
33 | Cc1ccc(NC(=O)CSc2nnc(CNC(=O)c3ccco3)n2C)cc1C | -3.26
34 | NS(=O)(=O)c1ccc(N/N=C2/CCCCC2C2CCCCC2)c([N+](=O)[O-])c1 (stereo not drawn) | 17.7
35 | COc1ccc(S(=O)(=O)N(CC(=O)NCC2CCCO2)C2CCCCC2)cc1OC (stereo not drawn) | 3.59
36 | Cc1cc(C)cc(NC(=S)NCCc2c[nH]c3ccccc23)c1 | -5.57
37 | O=C(CSC1=Nc2ccccc2C2=NC(CC(=O)N3CCN(c4ccccc4)CC3)C(=O)N12)NCC1CCCO1 (stereo not drawn) | -7.73
38 | Cc1ccc([N+](=O)[O-])cc1S(=O)(=O)NCc1cccnc1 | -14.7
39 | CCCCn1c(N)c(N(CCOC)C(=O)c2ccc(S(=O)(=O)N3CCCCCC3)cc2)c(=O)[nH]c1=O | 11.3
40 | N#Cc1nc(-c2ccco2)oc1N1CCN(c2ccccc2)CC1 | -62.9
41 | Cn1nc(C(=O)N2CCc3ccccc32)c2ccccc2c1=O | 9.27
42 | Cc1nc(-c2nc(C(=O)NNS(C)(=O)=O)cs2)cs1 | 4.39
43 | CC(=O)NCC(=O)N(c1ccccc1)C1(C(=O)NC2CCCCC2)CCCCC1 | 9.36
44 | CCc1cccc2sc(NC(=O)c3ccc(N4C(=O)CCC4=O)cc3)nc12 | 26.4

Row | SMILES | hERG current change (%, negative = inhibition) at 10uM [%]
45 | O=C(COCc1cc(-c2ccc3c(c2)OCO3)on1)Nc1cccnc1 | 10
46 | Cc1cc(NC(=O)c2ccccc2C)no1 | 14.8
47 | c1ccc2oc(Cc3ccc(Cc4nc5ccccc5o4)cc3)nc2c1 | -12.2
48 | CCOC(=O)[C@@H]1[C@H]2COc3cc(OC)ccc3[C@@H]2N2C(=O)N(c3ccc(Br)cc3)C(=O)[C@@]12C | 4.22
49 | COc1cc(CNC(=O)c2ccc3oc(C(C)C)nc3c2)cc(OC)c1 | -5.12
50 | COc1ccc2nc(N(CCN(C)C)C(=O)c3ccc4c(c3)OCCO4)sc2c1.Cl | -35.3
51 | C=CCNC(=S)N1CCN(c2cc3c(cc2F)c(=O)c(C(=O)O)cn3CC)CC1 | 6.11
52 | O=C(O)/C=C/c1cccc(NC(=O)c2ccc(Cl)cc2)c1 | 15.5
53 | COC(=O)C1=C(C)N(c2cccc(C)c2)C(=O)/C1=C\c1cccs1 | 4.08
54 | Cc1ccc(NC(=O)CCc2nnc3ccc(N4CCC(C)CC4)nn23)nc1 | -11.5
55 | CN(C)CCCCOc1cccc(Br)c1.O=C(O)C(=O)O | -23.7
56 | CN1CC(C(=O)c2ccc(Cl)cc2)C(c2ccc(Cl)cc2Cl)C1 (stereo not drawn) | -49.2
57 | Cc1ccccc1NC(=O)CN(C)S(=O)(=O)c1ccc2c(c1)n(C)c(=O)c(=O)n2C | -2.26
58 | O=C(COc1ccccc1Cl)NCCNC(=O)c1ccncc1 | 20.5
59 | Cc1c2cnn(CC(=O)NCc3ccccn3)c(=O)c2c(C)n1Cc1ccc(Cl)cc1 | -47.9
60 | COc1cccc(N2CC(C)Cn3c2nc2c3c(=O)n(CCN3CCOCC3)c(=O)n2C)c1 (stereo not drawn) | -2.98
61 | Nc1cc([N+](=O)[O-])cc2oc(-c3ccccc3)cc12 | 15.9
62 | Fc1cccc(Nc2cc(-n3cccn3)ncn2)c1 | 2.01
63 | Fc1ccc(N2CCN(Cc3cn[nH]c3-c3ccccc3)CC2)cc1 | -59.2
64 | O=C1NC(=O)C2(CCCCCCCCCCC2)N1 | 8.87
65 | O=C(NC(=S)NCC1CCCO1)c1ccc(Cl)cc1Cl (stereo not drawn) | 0.566
66 | CCOC(=O)c1[nH]ncc1CN1CCCC(C(=O)c2cc(Cl)ccc2OC)C1 (stereo not drawn) | -71.1

Row | SMILES | hERG current change (%, negative = inhibition) at 10uM [%]
67 | Cc1ccc(S(=O)(=O)NC(=O)Nc2nccs2)cc1 | 12.7
68 | CC(C)(C)NC(=O)NC(=O)CSc1nnc(COc2ccccc2Cl)o1 | -4.3
69 | O=C(Cc1ccccc1[N+](=O)[O-])NCCCN1CCOCC1 | 0.529
70 | CCc1ccccc1N1CCN(S(=O)(=O)c2cc(OC)ccc2OC)CC1 | -23.3
71 | O=C(Nc1cccc(Br)c1)c1c(O)c2c(n(Cc3ccccc3)c1=O)CCCC2 | 5.83
72 | Cc1ccc(NC(=O)c2c(Cl)n(C)c3ccccc23)cc1 | -8.66
73 | Cc1cc(C(=O)COC(=O)CNC(=O)c2ccc(F)cc2)c(C)n1Cc1ccco1 | -12.3
74 | O=C(Cc1c[nH]c2ccccc12)NCc1ccncc1 | 8.17
75 | CNCc1ccccc1OCC(=O)Nc1ccccc1OC | -14.1
76 | CNS(=O)(=O)c1ccc(N=Cc2c(C)[nH]n(-c3ccc(C)cc3C)c2=O)cc1 | 15.6
77 | COc1ccc(-c2csc3ncnc(N4CCN(S(=O)(=O)c5cccc(C(F)(F)F)c5)CC4)c23)cc1 | 4.22
78 | O=C(Nc1cccc2ccccc12)c1cccc(F)c1 | 13
79 | Clc1ncnc2c1oc1ccccc12 | 6.02
80 | CCN(CC)CCN(C(=O)c1ccc(C(=O)c2ccccc2)cc1)c1nc2cc3c(cc2s1)OCO3.Cl | -43.8
81 | CCCCN1C(=O)C(O)(c2ccccc2)c2cc(Br)ccc21 (stereo not drawn) | -0.8
82 | OCC(O)C(O)C(O)C(O)c1nc2ccccc2[nH]1 (stereo not drawn) | -8.26
83 | COc1cccc(C(=O)COc2ccc3c(C)c(Cc4ccccc4)c(=O)oc3c2)c1 | 14
84 | CCNC(=O)CC1C(=O)N(c2ccc(F)cc2)C(=O)N1CCc1sccc1C (stereo not drawn) | -31.2
85 | CCN(CC(=O)N1CCOCC1)S(=O)(=O)c1cc(Cl)ccc1Cl | -24.6
86 | C=CCNC(=O)CN1CCN(Cc2ccc3c(c2)OCO3)CC1.Cl | 2.48
87 | CCO[C@@H]1OC(C(=O)N2CCN(Cc3ccccc3)CC2)=C[C@H](c2coc3ccccc3c2=O)[C@H]1CCCO | -18.6
